Results from the RNAGym collection of RNA variant scans (doi:10.1073/pnas.2313332121).
Variants at the floor of the assay are shown more often than the library holds them.

B1: TPR 5TU (parent)
chain: GGAUCUUCUCGAUCUAACAAAAAAGACAAAUCUGCCACAAAGCUUGAGAGCAUCUUCGGAUGCAGAGGCGGCAGCCUUCGGUGGCGCGAUAGCGCCAACGUUCUCAACUAUGACACGCAAAACGCGUGCUCCGUUGAAUGGAGUUUAUCAUG

Variants of: B1
Assay: polymerase ribozyme fitness, log enrichment relative to wild type (log ratio); higher = more active; in vitro selection for triplet polymerase activity
Method in brief: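 Input and output libraries were sequenced on Illumina after a single in vitro selection round, run in triplicate on PCR-built, transcribed mutant libraries of each subunit of a heterodimeric triplet polymerase ribozyme. Selection annealed libraries to a biotinylated primer, the partner subunit and triplets, incubated them frozen at −7 °C, then gel-excised extended constructs for streptavidin-bead capture and RT-PCR. Genotypes with ≥10 input reads and ≥1 read per output were kept. Fitness is the logarithm, taken in base 2, of genotype enrichment divided by wild-type enrichment, using inverse-variance-weighted replicate averages.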

First: G50U G58A
Second: C51U G81A U148A
The “polymerase ribozyme fitness (log ratio)” value of the first is higher: 0.88 for the first, no more than -4.2 for the second.

A52C C76A and A52C C76G cannot be ordered by “polymerase ribozyme fitness (log ratio)” value: no more than -4.2 for the first, no more than -4.2 for the second.

First: G50C G86U U104A A137U G140U
Second: C51A C54G G59C G84A C116G
The “polymerase ribozyme fitness (log ratio)” value of the first is lower: no more than -4.2 for the first, -3.63 for the second.

C51U G88C A107G A113G C131G A147C and C51A G86A C87U cannot be ordered by “polymerase ribozyme fitness (log ratio)” value: no more than -4.2 for the first, no more than -4.2 for the second.

G50C U56A G92U and A52C A60C G80A G117C U134C cannot be ordered by “polymerase ribozyme fitness (log ratio)” value: no more than -4.2 for the first, no more than -4.2 for the second.

C51A U55A G83A C85U and C51U G136C A138U cannot be ordered by “polymerase ribozyme fitness (log ratio)” value: no more than -4.2 for the first, no more than -4.2 for the second.

C51U G86C A113G C114U A121G U151G and C51U C75A G80U A107U cannot be ordered by “polymerase ribozyme fitness (log ratio)” value: no more than -4.2 for the first, no more than -4.2 for the second.

C51A A52C A64C C95U U101C A121C G133C U135G and A52C C99U G112C C116U U151C cannot be ordered by “polymerase ribozyme fitness (log ratio)” value: no more than -4.2 for the first, no more than -4.2 for the second.

G50C G65U C75U A98U and A52C G80C C93A G94U U101G A142G cannot be ordered by “polymerase ribozyme fitness (log ratio)” value: no more than -4.2 for the first, no more than -4.2 for the second.

G50U A52G C85A U109A U148G and C51U C103G A138G cannot be ordered by “polymerase ribozyme fitness (log ratio)” value: no more than -4.2 for the first, no more than -4.2 for the second.

Going from G50C U78G G86A C123U to C51U U134C, the “polymerase ribozyme fitness (log ratio)” value rises from no more than -4.2 to -0.745.

Going from G50U G81A C96G A142U to C51U G59A G92A C118G G136C, the “polymerase ribozyme fitness (log ratio)” value falls from -2.59 to no more than -4.2.

Compared with A52C C87U A89C C99U, C51A G94U C103U C129A is lower in “polymerase ribozyme fitness (log ratio)” value: -4.14 for the first, no more than -4.2 for the second.

Compared with A52C A66C A91C A115G, C51G A115C A122U is higher in “polymerase ribozyme fitness (log ratio)” value: no more than -4.2 for the first, -3.82 for the second.

A52C C57A C149G and C51G G68A C79G G86C cannot be ordered by “polymerase ribozyme fitness (log ratio)” value: no more than -4.2 for the first, no more than -4.2 for the second.

Going from G50U U56A A91G C116U to C51A U78G C79A G83A C114A, the “polymerase ribozyme fitness (log ratio)” value falls from -2.81 to no more than -4.2.

C51A C69A and G50C C76A C96A C132U G140U U151A cannot be ordered by “polymerase ribozyme fitness (log ratio)” value: no more than -4.2 for the first, no more than -4.2 for the second.

G50U A64G G71A U82G A91U C125A and C51U U56G C57U A97G C116U A137C A150G cannot be ordered by “polymerase ribozyme fitness (log ratio)” value: no more than -4.2 for the first, no more than -4.2 for the second.

C51U G92U A107U A113U and G50C C72U U90G C95G cannot be ordered by “polymerase ribozyme fitness (log ratio)” value: no more than -4.2 for the first, no more than -4.2 for the second.

C51G G67C C93U A121G and C51A A52G G68A A142C U144A cannot be ordered by “polymerase ribozyme fitness (log ratio)” value: no more than -4.2 for the first, no more than -4.2 for the second.

C51U U53C U55A C75A C95U U134C A150U and C51U G80C A91G G94A cannot be ordered by “polymerase ribozyme fitness (log ratio)” value: no more than -4.2 for the first, no more than -4.2 for the second.

A52C A89G U127A and A52C A64U cannot be ordered by “polymerase ribozyme fitness (log ratio)” value: no more than -4.2 for the first, no more than -4.2 for the second.

Compared with G50C G84U U135A, G50U A150G is higher in “polymerase ribozyme fitness (log ratio)” value: no more than -4.2 for the first, -2.11 for the second.

A52C G80C G84U C93U and G50U A66G cannot be ordered by “polymerase ribozyme fitness (log ratio)” value: no more than -4.2 for the first, no more than -4.2 for the second.

Going from G50C G59U C118U to C51A U53A C57G G84A A97U C116G, the “polymerase ribozyme fitness (log ratio)” value falls from -2.35 to no more than -4.2.

C51U C75G A137C and G50U C57A U78C G80U G94A U109C cannot be ordered by “polymerase ribozyme fitness (log ratio)” value: no more than -4.2 for the first, no more than -4.2 for the second.

C51U G68A C96U G143C and C51G U53G C75A C103A cannot be ordered by “polymerase ribozyme fitness (log ratio)” value: no more than -4.2 for the first, no more than -4.2 for the second.

G50C C75U C85U U104G U151A and G50C G94A U135C G143A cannot be ordered by “polymerase ribozyme fitness (log ratio)” value: no more than -4.2 for the first, no more than -4.2 for the second.

G50C C72U G86C U135G and G50C G74A C85A U102C A115C cannot be ordered by “polymerase ribozyme fitness (log ratio)” value: no more than -4.2 for the first, no more than -4.2 for the second.

Going from C51A U61A C95U to C51U G71A A91U G124C, the “polymerase ribozyme fitness (log ratio)” value falls from -2.06 to no more than -4.2.

Compared with G50U U55A A64G G80A, C51G G83A U134C is higher in “polymerase ribozyme fitness (log ratio)” value: no more than -4.2 for the first, -3.62 for the second.

G50U A60C G74A G80U A119U and G50C C79A G92C C96A A150G cannot be ordered by “polymerase ribozyme fitness (log ratio)” value: no more than -4.2 for the first, no more than -4.2 for the second.

C51A C54U G70A U111A A119C C149A and C51G C93A A110U U134C U146G cannot be ordered by “polymerase ribozyme fitness (log ratio)” value: no more than -4.2 for the first, no more than -4.2 for the second.

G50U A66G A73C G84U U134A and C51U C125A A137U cannot be ordered by “polymerase ribozyme fitness (log ratio)” value: no more than -4.2 for the first, no more than -4.2 for the second.

First: C51G C87G A137G U145G
Second: C51G G136U U144G
The “polymerase ribozyme fitness (log ratio)” value of the first is lower: no more than -4.2 for the first, -2.56 for the second.

C51A G83U U104G A150C and G50C U56A C87G G100A U101A U135C cannot be ordered by “polymerase ribozyme fitness (log ratio)” value: no more than -4.2 for the first, no more than -4.2 for the second.

C51U A52G C76A A89G A97C C105U A119C G141U and G50U G126C A138U cannot be ordered by “polymerase ribozyme fitness (log ratio)” value: no more than -4.2 for the first, no more than -4.2 for the second.

First: A52C G59A
Second: C51A C63A U82A
The “polymerase ribozyme fitness (log ratio)” value of the first is lower: -1.18 for the first, -0.419 for the second.

A52C G68A U78A A115C A138U and C51G U55G C108A A119U G124A G141A U146A cannot be ordered by “polymerase ribozyme fitness (log ratio)” value: no more than -4.2 for the first, no more than -4.2 for the second.

G50U G58C U61A G70A U90G C95U C99A U101G and G50C U55G G67A C75A C87U U134G A137G cannot be ordered by “polymerase ribozyme fitness (log ratio)” value: no more than -4.2 for the first, no more than -4.2 for the second.

G50C G68U C85U G92U A106G and G50C C87G cannot be ordered by “polymerase ribozyme fitness (log ratio)” value: no more than -4.2 for the first, no more than -4.2 for the second.

For G50C C87A, the “polymerase ribozyme fitness (log ratio)” value was no more than -4.2.
